# Source: the antibiotic and cytotoxicity screens of Wong et al. (2023)
# The list shows a part of the results.
# Tested on: HSkMC (human skeletal muscle cells)
# Test: cytotoxicity call (relative viability < 0.9)
# Conditions: 10 µM
row,SMILES,cytotoxicity call
1,C/C=C/c1ccc([C@H]2[C@@H](CO)N(S(=O)(=O)Cc3ccccc3)C23CN(C(=O)C2CCOCC2)C3)cc1,inactive
2,C[C@@H]1CN([C@@H](C)CO)C(=O)c2cc(NC(=O)Nc3cccc4ccccc34)ccc2O[C@@H]1CN(C)C(=O)Nc1ccc(F)cc1,inactive
3,C[C@H]1CN([C@@H](C)CO)C(=O)c2cc(C#Cc3ccccc3F)cnc2O[C@H]1CN(C)C(=O)Cc1cccnc1,inactive
4,C[C@H]1CCCCO[C@@H](CN(C)C(=O)Nc2ccccc2)[C@@H](C)CN([C@@H](C)CO)C(=O)c2cc(NC(=O)NC3CCCCC3)ccc2O1,inactive
5,COc1ccc(S(=O)(=O)Nc2ccc3c(c2)C(=O)N([C@@H](C)CO)C[C@@H](C)[C@@H](CN(C)C(=O)Nc2cccc4ccccc24)OCCCC[C@@H](C)O3)cc1,inactive
6,C[C@@H]1CN([C@H](C)CO)C(=O)c2cc(NC(=O)CCCN(C)C)ccc2O[C@@H]1CN(C)S(=O)(=O)c1ccc(F)cc1,inactive
7,CCCC#Cc1ccc2c(c1)O[C@H](CN(C)Cc1ccc3c(c1)OCO3)[C@@H](C)CN([C@@H](C)CO)S2(=O)=O,inactive
8,Cc1ccc(S(=O)(=O)N(C)C[C@H]2Oc3ccc(NS(=O)(=O)c4cn(C)cn4)cc3CC(=O)N([C@@H](C)CO)C[C@@H]2C)cc1,inactive
9,COCC(=O)N1C[C@H](C)[C@@H](OC)CN(C)C(=O)c2cc(NC(=O)Nc3cccc(F)c3)ccc2OC[C@@H]1C,inactive
10,C[C@@H]1CN([C@H](C)CO)C(=O)c2cc(NC(=O)NC3CCCCC3)ccc2O[C@@H](C)CCCCO[C@H]1CN(C)C(=O)Nc1ccc2c(c1)OCO2,inactive
11,Cc1ccc(S(=O)(=O)N(C)C[C@H]2Oc3ccc(NS(C)(=O)=O)cc3C(=O)N([C@@H](C)CO)C[C@@H]2C)cc1,inactive
12,C[C@H]1CN([C@@H](C)CO)C(=O)CCCn2nncc2CO[C@H]1CN(C)C(=O)C1CC1,inactive
13,Cc1ccc(S(=O)(=O)Nc2ccc3c(c2)C(=O)N([C@@H](C)CO)C[C@@H](C)[C@H](CN(C)S(C)(=O)=O)OCCCC[C@@H](C)O3)cc1,inactive
14,COc1cccc(C#Cc2ccc3c(c2)O[C@@H](CN(C)C(=O)CN2CCOCC2)[C@H](C)CN([C@@H](C)CO)S3(=O)=O)c1,inactive
15,C[C@H](CO)N1C[C@H](C)[C@@H](CN(C)Cc2ccc(-c3ccccc3)cc2)Oc2ccc(NC(=O)NC3CCCCC3)cc2CC1=O,inactive
16,CC(=O)c1c(O)c(C)c(O)c2c1OC1=CC(=O)C(C(C)=O)C(=O)C12C (stereo not given),inactive
17,Cc1noc(C)c1NC(=O)N(C)C[C@@H]1Oc2c(NS(=O)(=O)c3cn(C)cn3)cccc2C(=O)N([C@@H](C)CO)C[C@H]1C,inactive
18,C[C@H](CO)N1C[C@H](C)[C@H](CN(C)Cc2ccccc2F)Oc2cc(C#CC3CC3)ccc2S1(=O)=O,inactive
19,COc1cccc(NC(=O)N[C@H]2C=C[C@@H](CC(=O)N3CCOCC3)O[C@@H]2CO)c1,inactive
20,COc1ccccc1C#Cc1cnc2c(c1)C(=O)N([C@@H](C)CO)C[C@@H](C)[C@@H](CN(C)C(=O)c1ccc3c(c1)OCO3)O2,inactive

row,SMILES,cytotoxicity call
1,COc1ccc(S(=O)(=O)N2C[C@H](O)COC[C@H]3O[C@H](CC(=O)N[C@@H]4CCN(Cc5ccccc5)C4)CC[C@@H]32)cc1,inactive
2,CCCC(=O)N1CC[C@]2(CC1)CN([C@H](CO)c1c2c2ccc(cc2n1C)OC)C(=O)CN1CCOCC1,inactive
3,C[C@H](CO)N1C[C@H](C)[C@@H](CN(C)C(=O)CN(C)C)Oc2cc(C#CCC3CCCC3)ccc2S1(=O)=O,inactive
4,CO[C@H]1CN(C)C(=O)c2cc(NS(=O)(=O)c3ccccc3)ccc2OC[C@H](C)N(C(=O)NC(C)C)C[C@H]1C,inactive
5,COCC(=O)N1C[C@@H](C)[C@H](OC)CN(C)C(=O)c2ccc(NC(=O)Nc3ccccc3)cc2OC[C@@H]1C,inactive
6,C[C@@H]1CN([C@H](C)CO)C(=O)Cc2cc(NC(=O)Cn3cnnn3)ccc2O[C@H]1CN(C)C(=O)NC1CCCCC1,inactive
7,C[C@@H]1CN([C@H](C)CO)S(=O)(=O)c2ccc(Br)cc2O[C@H]1CN(C)S(=O)(=O)c1ccccc1,inactive
8,Cc1noc(C)c1S(=O)(=O)Nc1ccc2c(c1)CC(=O)N([C@H](C)CO)C[C@@H](C)[C@@H](CN(C)Cc1ccncc1)O2,inactive
9,COCC(=O)N1C[C@@H](C(=O)N2CCCO2)C[C@@H]2OCC[C@@H]21,inactive
10,C[C@H](CO)N1C[C@H](C)[C@H](CN(C)Cc2ccc(C(F)(F)F)cc2)OCCCC[C@H](C)Oc2ccc(NS(=O)(=O)c3ccccc3)cc2C1=O,inactive
11,C[C@@H]1CN([C@H](C)CO)C(=O)CCCn2nncc2CO[C@@H]1CN(C)S(=O)(=O)c1cccc(C#N)c1,inactive
12,COc1ccccc1N1CCN(CC(O)COc2cccc3ccccc23)CC1 (stereo not given),inactive
13,C[C@@H]1CN([C@@H](C)CO)C(=O)c2cc(NC(=O)CCN3CCOCC3)ccc2O[C@H]1CN(C)C(=O)Nc1ccc2c(c1)OCO2,inactive
14,Cc1ccc(S(=O)(=O)Nc2ccc3c(c2)C(=O)N([C@@H](C)CO)C[C@@H](C)[C@@H](CN(C)Cc2ccc(Cl)c(Cl)c2)O3)cc1,active
15,CC(=O)C1C(=O)C=C(C)OC1=O (stereo not given),inactive
16,COc1ccc(NC(=O)N(C)C[C@H]2OCCCC[C@@H](C)Oc3ccc(NC(=O)NC(C)C)cc3C(=O)N([C@@H](C)CO)C[C@H]2C)cc1,inactive
17,O=C(CCCCCCC(=O)N/N=C/[C@H](O)[C@@H](O)[C@H](O)CO)NO,inactive
18,Cn1c(=O)c2c(nc(SCC(=O)NC(C)(C)C)n2C)n(C)c1=O,inactive
19,CO[C@H]1CN(C)C(=O)c2cc(NS(=O)(=O)c3cn(C)cn3)ccc2OC[C@H](C)N(Cc2cccc(F)c2)C[C@H]1C,inactive
20,CN(C)c1cc(CNCC(C)(C)C)c(O)c2c1C[C@H]1C[C@H]3[C@H](N(C)C)C(=O)[C@H](C(N)=O)C(=O)[C@@]3(O)C(=O)[C@@H]1C2=O,inactive
